Data published in PubChem BioAssay (NCATS).
Values joined by “and” are separate entries in the source; they are usually repeats but may differ in a detail not shown here. Equal values may be shown once. The shares of active, inactive and inconclusive entries below differ from those in the screen. For part of these data: Potencies beside an inconclusive call are fits to weak or partial responses and may not hold up. For part of these data: “Side channel” marks fits to a control or component signal instead of the main read-out. Active and inactive are the calls of the source. Unless noted, calls follow the shape of the dose curve; as a rule, active = well fitted curve in the direction sought with a large enough effect; inconclusive = small, poorly fitted or top-dose-only effect, or another doubt; inactive = no such curve, though single readings can be large; an effect the other way counts as inactive or inconclusive.

Columns and labels:
[1] = qHTS to identify inhibitors of the type 1 interferon - major histocompatibility complex class I in skeletal muscle: primary screen against the NCATS Mechanism Interrogation Plate v5.0 (MIPE) Libary (AID 1347411); details: iHSKM cells + IFN-b, HiBiT-tagged MHC-I luminescence, 24 h; activity change, negative = inhibition: at 45.8 µM (top of the series); also: nearly all actives have a fitted effect of over 65% in size; also: potency is read from the fitted curve at half-maximal effect;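 as to activity change, negative = inhibition: plate controls were vehicle for no effect and reference inhibitor for full effect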
In short: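 Immortalized human myoblasts (C25cl48) with HiBit knocked into endogenous HLA-B*08:01 were stimulated with 4 ng/ml IFN-beta and given compounds in 11-point 1:3 titration from 46 uM. After 24 h at 37 C, lytic HiBiT luminescence was read.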

[2] = target: Peroxisome proliferator-activated receptor delta (Homo sapiens) (UniProt Q03181); assay: qHTS assay for small molecule agonists of peroxisome proliferator-activated receptor delta signaling (AID 588534; calls by dose curve; also: potency is read from the fitted curve at half-maximal effect;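 as to activation: 0% = DMSO basal wells and 100% = positive control agonist at 10 µM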); details: HEK293T PPARdelta-UAS-bla, beta-lactamase ratio, 18 h
UniProt Q03181, sequence (Q03181 whole entry, looked up): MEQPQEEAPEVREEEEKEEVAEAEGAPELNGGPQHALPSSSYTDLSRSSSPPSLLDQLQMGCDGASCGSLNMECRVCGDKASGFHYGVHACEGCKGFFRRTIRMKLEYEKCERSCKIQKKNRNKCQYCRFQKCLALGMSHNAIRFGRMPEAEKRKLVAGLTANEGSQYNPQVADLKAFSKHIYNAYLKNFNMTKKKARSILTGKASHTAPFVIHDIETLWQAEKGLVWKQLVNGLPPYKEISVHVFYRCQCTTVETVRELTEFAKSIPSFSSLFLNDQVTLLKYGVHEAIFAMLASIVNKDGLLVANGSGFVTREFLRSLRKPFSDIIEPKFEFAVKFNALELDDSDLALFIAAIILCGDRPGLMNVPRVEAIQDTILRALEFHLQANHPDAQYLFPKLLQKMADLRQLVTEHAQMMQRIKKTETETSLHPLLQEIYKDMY
In short: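 Cells carrying a PPAR-delta beta-lactamase reporter were treated with compounds for 18 h at 37 °C in agonist mode. CCF4 fluorescence was read after 2 h; EC50 and efficacy from Hill fits.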

[3] = target: Peroxisome proliferator-activated receptor gamma (Homo sapiens) (UniProt P37231); assay: qHTS assay for small molecule antagonists of peroxisome proliferator-activated receptor gamma signaling (AID 588537; active = well fitted inhibition curve with a large enough effect in the signal ratio, with a control signal flat, not every such curve was filed as active; inconclusive = small, poorly fitted or top-dose-only effect, or effect the other way, or a change in a side signal; the % refers to the signal ratio; also: potency is read from the fitted curve at half-maximal effect;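 also: reporter cells co-stimulated with 50 nM rosiglitazone agonist during compound treatment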; as to activity, negative = inhibition: % of control where 0% means no effect); details: HEK293 PPARg-UAS-bla, beta-lactamase ratio, antagonist mode; activity, negative = inhibition: at 76.8 µM (top of the series)
In short: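 Antagonist mode, beta-lactamase reporter in HEK293; charcoal/dextran FBS 1%; 3000 cells/well, 37 C 6-6.5 h; cpd titration + rosiglitazone 50 nM final, 16 h 37 C; CCF4, 2 h RT; 460/530 nm; Hill fit → IC50, efficacy.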

[4] = qHTS assay to identify inhibitors of the type 1 interferon - major histocompatibility complex class I in skeletal muscle: Counter screen cell viability and HiBit confirmation (AID 1347412); details: iHSKM muscle cells + IFN-b, HiBiT or CellTiter-Glo, 24 h; also: nearly all actives have a fitted effect of over 60% in size; also: potency is read from the fitted curve at half-maximal effect; as to activity change, negative = inhibition: % is scaled to controls: 0 for no effect and ±100 for the full control effect
In short: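 After 24 h with human IFN-beta (4 ng/ml) and compound titrations (top 46 uM final, 1:3, 12 points), HLA-B HiBit myoblasts were lysed for either Nano-Glo HiBiT luminescence or CellTiter Glo viability on paired plates.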

[5] = target: Muscarinic acetylcholine receptor M1 (Rattus norvegicus) (UniProt P08482); assay: qHTS Assay for Antagonists of Acetylcholine Muscarinic M1 Receptor: Kinetic Measurement of Intracellular Calcium Response (AID 943); also: potency is read from the fitted curve at half-maximal effect; nearly all actives have a fitted effect of over 75% in size
UniProt P08482, sequence (P08482 whole entry, looked up): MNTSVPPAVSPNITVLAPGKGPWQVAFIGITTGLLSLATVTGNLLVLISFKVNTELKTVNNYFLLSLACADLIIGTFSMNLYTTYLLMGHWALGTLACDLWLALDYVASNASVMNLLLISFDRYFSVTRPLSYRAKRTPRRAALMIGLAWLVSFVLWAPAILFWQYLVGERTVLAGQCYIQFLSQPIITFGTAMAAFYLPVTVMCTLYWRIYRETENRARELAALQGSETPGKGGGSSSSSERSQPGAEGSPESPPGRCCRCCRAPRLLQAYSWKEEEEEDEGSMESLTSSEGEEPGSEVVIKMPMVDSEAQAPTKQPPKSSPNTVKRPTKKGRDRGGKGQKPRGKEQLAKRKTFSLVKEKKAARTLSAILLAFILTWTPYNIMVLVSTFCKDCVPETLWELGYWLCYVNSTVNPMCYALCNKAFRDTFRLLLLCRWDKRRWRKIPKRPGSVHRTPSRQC
In short: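 CHO cells expressing rat M1 receptor, Fluo-4 loaded, preincubated 10 min with compound, then stimulated with EC80 carbachol (100 nM final). Kinetic calcium fluorescence over 4 min; response taken as peak over basal signal.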

[6] = qHTS for differential inhibitors of proliferation of Plasmodium falciparum line 7G8 (AID 1815);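 also: potency is read from the fitted curve at half-maximal effect; parasite growth measured after three days of incubation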
[7] = qHTS for differential inhibitors of proliferation of Plasmodium falciparum line Dd2 (AID 1882); details: Potency: Plasmodium falciparum Dd2 proliferation inhibition;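 also: plate controls were DMSO vehicle for no effect and 0.29 µM artemisinin for full effect; nearly all actives have a fitted effect of over 65% in size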
In short: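 Dd2-infected erythrocytes (0.3% parasitemia, 2.5% hematocrit final) incubated with compound 72 h at 37 C, 5% CO2; lysed with saponin/Triton buffer containing SYBR Green I, incubated overnight in the dark, then read by fluorescence (485/535 nm). Normalized to 0.29 uM artemisinin and DMSO.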

[8] = qHTS for differential inhibitors of proliferation of Plasmodium falciparum line W2 (AID 1883); details: Potency: Plasmodium falciparum W2 proliferation inhibition;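 also: parasites grown with compound for 72 h before lysis and staining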; also: potency is read from the fitted curve at half-maximal effect;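 as to activity change, negative = inhibition: 0% = vehicle wells and -100% = control inhibitor wells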
[9] = Quantitative high throughput screen for delayed death inhibitors of the malarial parasite plastid, 96 hour incubation (AID 488745); also: nearly all actives have a fitted effect of over 70% in size; also: potency is read from the fitted curve at half-maximal effect; as to activity change, negative = inhibition: % is scaled to controls: 0 for no effect and ±100 for the full control effect
In short: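 Luciferase-expressing P. falciparum in erythrocytes (2% hematocrit, 0.1% parasitemia) incubated with compound for 96 h at 37 C, 5% CO2, in RPMI 1640 with 0.5% Albumax. Growth inhibition read as decreased luminescence.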

[10] = qHTS of pediatric cancer cell lines to identify multiple opportunities for drug repurposing: Confirmatory screen for LAN-5 cells (AID 1347113); also: potency is read from the fitted curve at half-maximal effect; nearly all actives have a fitted effect of over 65% in size
In short: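 Cells (500-1,000/well) rested 5 h, then received compounds for 48 h; metabolically active cells were measured by CellTiter-Glo luminescence. Final concentrations spanned up to 46 µM (MIPE, 11-point) or 0.59 nM-46 µM (NPC, 8-point) in primary screens, 11-point in follow-ups.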

[11] = qHTS of pediatric cancer cell lines to identify multiple opportunities for drug repurposing: Confirmatory screen for DAOY cells (AID 1347114); also: nearly all actives have a fitted effect of over 65% in size; also: potency is read from the fitted curve at half-maximal effect
In short: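 Viability measured as metabolically active cells via CellTiter-Glo luminescence following 48 hours of compound exposure, 11-point dilutions in confirmatory testing. 500-1,000 cells/well plated 5 hours before dosing; controls were DMSO and 2.3 µM bortezomib.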

[12] = Cell Viability - LYMP2-005 (AID 967); also: potency is read from the fitted curve at half-maximal effect
In short: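 LYMP2-005 human lymphoblastoid cells (2500/well) were treated with compounds for 24 h at 37 C. Intracellular ATP was then measured by CellTiter-Glo luminescence after 30 min at room temperature. AC50 values came from Hill-equation fits of qHTS concentration-response data.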

[13] = qHTS assay to identify small molecules that stimulate interleukin-8 (IL-8) secretion (AID 651758; active = well fitted activation curve with a large enough effect in the signal ratio; inconclusive = small, poorly fitted or top-dose-only effect, or effect the other way, or a change in a side signal; the % refers to the signal ratio; also: 0% is about no effect); details: HTRF ratio (665/615); activation: at 92.2 µM (top of the series)
In short: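 Secreted IL-8 measured by TR-FRET sandwich (cryptate and XL665 antibodies) from THP-1 cells exposed to compound overnight (16 hrs, 37 C).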

[14] = Natriuretic polypeptide receptor (hNpr1) antagonism - Pilot counterscreen GloSensor control cell line (AID 1347045; calls by dose curve; also: potency is read from the fitted curve at half-maximal effect)
In short: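 HEK293 cGMP GloSensor cells preloaded 2 h with 2% GloSensor reagent, then compound 30 min before baseline luminescence read. Stimulated with 50 uM sodium nitroprusside, 20 min at room temperature, then read again; counterscreen for Npr1 antagonism.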

[15] = NS1 protein of Zika virus - qHTS assay to identify small molecule inhibitors in human HEK 293 cells (AID 1347053);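 also: plate controls were infected untreated cells for no effect and uninfected cells for full effect; nearly all actives have a fitted effect of over 55% in size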
In short: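 HEK 293 cells pretreated with compound for 1 h, then infected with ZIKV MR766 (MOI 0.5) for 24 h at 37 C. NS1 detected by TR-FRET with two anti-NS1 antibodies; normalized to uninfected (0%) and infected (100%) wells.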

[16] = qHTS profiling for inhibitors of Plasmodium falciparum proliferation (AID 504749); also: nearly all actives have a fitted effect of over 60% in size; also: potency is read from the fitted curve at half-maximal effect;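 as to activity, negative = inhibition: 0% = DMSO vehicle and full inhibition = artemisinin control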; details: P. falciparum in erythrocytes, SYBR Green DNA, 72 h; parasite line A
In short: (§1)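 Infected RBCs, 0.3% parasitemia/2.5% Hct final; cpd 72 h, 37 C, 5% CO2; lysis buffer with saponin/triton/SYBR Green I, o/n RT dark; FI 485/535; norm. to artemisinin (0.29 uM) and DMSO.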

[17] = tested on: CP315; assay: as above; details: P. falciparum in erythrocytes, SYBR Green DNA, 72 h; series mostly up to 28.7 µM
In short: as §1

[18] = qHTS Assay for Identification of Small Molecule Antagonists for Thrombopoietin (TPO) Signaling Pathway (AID 918); details: TPO-dependent cell signaling reporter, antagonist mode; activity change, negative = inhibition: at 38.5 µM (top of the series); also: nearly all actives have a fitted effect of over 60% in size
In short: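 Murine Ba/F3 cells expressing human TPO receptor and a Glycoprotein IIb promoter-luciferase reporter, IL-3-starved overnight, treated with compound plus TPO at EC50 (26 pM final). After 24 h at 37 C, luminescence read to detect inhibitors.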

[19] = Counterscreen qHTS for small molecule stabilizers of the endoplasmic reticulum resident proteome: GLuc-NoTag assay (AID 1508627); also: potency is read from the fitted curve at half-maximal effect
In short: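 Luminescence of Gaussia luciferase secreted into the medium (coelenterazine, 0.07x final, unlysed cells) was the read-out. Human SH-SY5Y neuroblastoma cells constitutively secreting untagged GLuc received compound for 19 h, then 100 nM thapsigargin for 4 h.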

[20] = activation: at 76.7 µM (top of the series)
Tags tell the direction and shape of the fitted curve or compound fluorescence and quenching.

With `Cc1cccc(-c2[nH]ncc2-c2ccc(F)c(-c3cnn(CCO)c3)c2)n1` the Potency [1] was inconclusive: 20.8 µM [inhibitor, partial curve].
With `O=C(Oc1ccccc1)c1cccc(C(=O)Oc2ccccc2)c1` the Potency [2, 20] was inconclusive: 39.8 µM [side channel, rising, partial curve] and the Potency [3] was “inactive”.
In the case of `CC1(C)CN(C(=O)c2ccc(-c3cccc4nc(NC(=O)C5CC5)nn34)cc2)C1`, the Potency [1] is reported as active: 4.15 µM, the Potency ([4]; HiBiT) is reported as active: 7.87 µM and the activity change, negative = inhibition ([4]; Viability, at 45.9 µM (top of the series)) is reported as inactive: 3.01%.
With `COc1ccccc1N1CCN(CCN2C(=O)CC3(CCCC3)CC2=O)CC1` the Potency [5] was inconclusive: 12.6 µM [inhibitor, partial curve, poor fit], the Potency [6] was inconclusive: 10 µM [inhibitor, partial curve, poor fit] and the Potency [7] was “inactive”. For the same compound, the Potency [8] was inconclusive: 17.8 µM [inhibitor, single point] and the Potency [9] was inconclusive: 0.0026 µM [inhibitor, full curve, poor fit].
For `CC(C)(C)NCC(O)c1cc(O)cc(O)c1` (stereo not drawn), the Potency [7] was “inactive”, the Potency [8] was “inactive” and the Potency [9] was “inactive”.
With `O=C(CCCCCCC(=O)Nc1ccccc1)NO` the Potency [10] was inconclusive: 36.9 µM [cytotoxic, single point] and the Potency [11] was inconclusive: 29.3 µM [cytotoxic, single point].
For `NCCNc1cccc2ccccc12`, the Potency [12] was inconclusive: 31.6 µM [cytotoxic, full curve, poor fit], the activation [2, 20] was inconclusive: 24.8% and the activation ([2]; at 76.7 µM (top of the series)) was inactive: -4.37%. For the same compound, the Potency [3] was active: 39.8 µM and the activation [13] was inconclusive: 29.3%.
With `CC(=O)O[C@]1(C(C)=O)CC[C@H]2[C@@H]3C=C(Cl)C4=CC(=O)[C@@H]5C[C@@H]5[C@]4(C)[C@H]3CC[C@@]21C` the Potency [12] was inconclusive: 31.6 µM [cytotoxic, partial curve, poor fit], the activation [13] was inconclusive: 11.6% and the Potency [14] was inconclusive: 26.1 µM [inhibitor, single point].
For `CC(C)Cn1cnc2c(N)nc3ccccc3c21`, the Potency [15] was “inactive”, the Potency [1] was “inactive” and the Potency [16] was inconclusive: 12.6 µM [inhibitor, partial curve].
In the case of `C[N+]1(CC2COC(c3ccccc3)(C3CCCCC3)O2)CCCCC1` (stereo not drawn), the Potency [17] is reported as active: 6.01 µM.
With `O=c1cc[nH]c(=S)[nH]1` the Potency [10] was inconclusive: 2.93 µM [rising, partial curve], the Potency [11] was “inactive” and the Potency [17] was “inactive”.
With `CCCC(C(=O)OCCN(CC)CC)(c1ccccc1)c1ccccc1` the activity change, negative = inhibition [18] was inconclusive: -26.9% [phenotype inactive], the Potency [5] was active: 0.447 µM and the Potency [6] was active: 1.78 µM. The Potency [9] was inconclusive: 18.5 µM [inhibitor, single point], the Potency [19] was active: 17.8 µM and the Potency [17] was inconclusive: 19 µM [inhibitor, single point].
In the case of `COc1ccc(C(Cl)=C(c2ccc(OC)cc2)c2ccc(OC)cc2)cc1`, the Potency [12] is reported as inconclusive: 50.1 µM [cytotoxic, partial curve, poor fit], the activation [13] is reported as inconclusive: -5.31% and the Potency [15] is reported as “inactive”.
In the case of `CCOc1ccccc1C(N)=O`, the Potency [12] is reported as “inactive” and the activation [13] is reported as inconclusive: -15.5%.
For `CN(C)CCCN1c2ccccc2CCc2ccccc21`, the activity change, negative = inhibition [18] was inconclusive: -8.39% [phenotype inactive] and the Potency [9] was “inactive”.
For `CC(=O)OC/C=C(C)/C=C/C=C(C)/C=C/C1=C(C)CCCC1(C)C`, the Potency [12] was inconclusive: 50.1 µM [cytotoxic, partial curve, poor fit], the activation [2, 20] was inconclusive: -16.3% and the activity, negative = inhibition [3] was inconclusive: -6.85% and inconclusive: 8.28%. The activation [13] was inconclusive: -26.8%.
